# From the supplement of paper PMC11417369
# ± gives the standard deviation of the averaged measurements. This is one part of the list.
# System: PfAP2-I AP2 domain 3 (GST-tagged)
# Experiment: gcPBM binding intensity (ln(normalized median fluorescence intensity)); higher = stronger DNA binding
# Outline: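 GST-tagged P. falciparum DNA-binding domains, expressed in E. coli (about 25 μg on average), were applied for 1 h to an Agilent 4 × 180k array of primer-extended double-stranded 36-bp intergenic genomic probes plus negative controls. The binding buffer was 1× PBS with 1% milk, 0.2 mg/ml BSA, 0.5% salmon testes DNA and 0.03% Triton X-100. Bound protein was detected with Alexa488 anti-GST antibody and scanned at 488 nm. Binding intensity is the highest Masliner-normalised natural-log median intensity across replicate spots of either probe orientation.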
row,Sequence,gcPBM binding intensity (ln)
1,GTTTGGTGGTGTTTTGGTACGTACGGGGGTGTATGT [XGTACX_site1211],9.78 ± 0.057
2,TCTTTGTACTTTCACATGTACACCCAAATGGAAATT [CACACA_negctrl_site1442],8.5 ± 0.18
3,AAATAAATCTTATGCACACAAATAATTAATGAAACA [CACACA_site5011],9.18 ± 0.17
4,ATATTTATGGAATATACACACATGTATAATTACATA [CACACA_site7045],7.63 ± 0.52
5,AGGACTAATATTTGAACACACATATAATAAATACAT [CACACA_site6068],7.67 ± 0.81
6,AAGACCATATGAATAATGCACACGTTTTAAAATATT [CACACA_site2323],10.5 ± 0.52
7,TTTCCATTTTCTCTATGTACATAAAAATGAGATAAA [XGTACX_site5689],8.03 ± 0.26
8,CACACGCACGGACACACACACAAAAAAAAAAAGAAA [CACACA_site6378],8.455 ± 0.035
9,ATATGTATTTATGTATTTATGTATTTTTATATTTTT [CACACA_negctrl_site595],7.57 ± 0.64
10,AAAAAAAAAAAACACACACACACATTCAATATAAAA [CACACA_site40],7.93 ± 0.27
11,TAAATGTTAAAATTCACACAAATATGTGCGGAATAT [CACACA_site5055],8.41 ± 0.3
12,GGAATTTTTATTCGAAGTACTGTTGTGAGTAATAAA [XGTACX_site8599],7.89 ± 0.5
13,ACCCATTTGATAATAATGCACACCACATATATTTAT [CACACA_site3061],11 ± 0.63
14,TGCAAGGAACAACACACACACACATAAATGTATATA [CACACA_site8149],7.78 ± 0.36
15,ATATATAATATATACACACACATGTATATATAAATA [CACACA_site1968],7.68 ± 0.43
16,TTTGACTAAATTAAATATTAAAGTATGGATTATTCT [CACACA_negctrl_site833],7.37 ± 0.69
17,ATATTATTTTATGCTACACACATTTTCTCTTATAAA [CACACA_site943],8.32 ± 0.26
18,TTCAAACATATTAATTGTACATACAACAAAACCATG [XGTACX_site5149],7.75 ± 0.42
19,AATATATTTTAGAGTTTTATATATTTTATGCATATA [GTGCAC_negctrl_site710],7.67 ± 0.51

row,Sequence,gcPBM binding intensity (ln)
1,TGGAAAATAAAGTACGCACACAAAAATTCTCTTCAT [CACACA_site2327],8.13 ± 0.38
2,TACAGATATTTTATTTCACACATTTTATCATTTTCT [CACACA_site5701],7.79 ± 0.5
3,TTCAAAAAAGGAAAGTTGCACTTGATACGCTTATTA [GTGCAC_site9411],8.23 ± 0.57
4,ATAAGTAATATAATATGTACATATATATATATATAT [XGTACX_site3818],9.3 ± 0.52
5,AAGAAATAAATACATACACACATATATATATATATA [CACACA_site3362],9.38 ± 0.38
6,AGAATAATTTTATCGGTACACACTGTATGCATAATA [CACACA_site374],8.27 ± 0.5
7,ATGCAAAATAAAGAAGCACACAAAAATGAAATATAT [CACACA_site9217],8.23 ± 0.91
8,GGAAATTTCAATATTTGTACATATATATATATATAT [XGTACX_site3222],9.56 ± 0.6
9,TATATATTGTTATAATGTACATAATATTTTATCTGC [XGTACX_site4983],7.66 ± 0.53
10,TAAAAGTTCACCTGTACACACATATATATATGTACA [CACACA_site1707],8 ± 0.38
11,TTTTTTATTTTTTGTTATATTTATAATAATTTATGA [XGTACX_negctrl_site260],7.44 ± 0.67
12,TACTTTACACATATTTTTAATTATTCTGAATTCAAA [GTGCAC_negctrl_site253],7.79 ± 0.63
13,ATATATATATATGTAGTGCATTTTATATATAATATT,9.875 ± 0.035
14,TATTTATATTCATAATGTACATTCAATTATTGTTTT [XGTACX_site4191],7.76 ± 0.52
15,AAATATTAAATGACAAAAAAAAAAAAAAAAGGGGTT [CACACA_negctrl_site951],7.59 ± 0.69
16,TTCTTTATTTTTTCTACACACATTATATATTCAAAG [CACACA_site5866],8.23 ± 0.61
17,TATTTTGAAAATAAAAGTACAAATTTTATATTTAAA [XGTACX_site3238],7.45 ± 0.55
18,TATAATATATTTTAATGTACGTACATCCCGATTAAT [XGTACX_site7651],8.28 ± 0.13
19,ATTTTTTTTTCTTAATGTACATACCAAAAAGAAAGA [XGTACX_site5471],7.98 ± 0.51

row,Sequence,gcPBM binding intensity (ln)
1,TATTAATATATATGTTGTACAAGTTTTTTTTTTTTT [XGTACX_site5865],7.92 ± 0.12
2,GATAAAATATGTTGCCGTACATATTCATATACTTAA [XGTACX_site4776],7.81 ± 0.58
3,TTTGTCTGCATACGCACACACGTGTACCATCTTATG [CACACA_site4784],8.71 ± 0.63
4,ATATAAAATAATACATGTACATATTATATATATATA [XGTACX_site1082],9.1 ± 0.14
5,TATATACGCATTTTTATACACACTTGTTTTATAAAA [CACACA_site727],8.02 ± 0.33
6,TTCTATATTTCTTTTTGTACATATAAATTCAAATAA [XGTACX_site2476],8.21 ± 0.45
7,TATATAAAATATTAATGTACATATAAATATATATAT [XGTACX_site6656],8.885 ± 0.049
8,ATTTATGAAAGAAATAGTACACACATAAACATTTGT [XGTACX_site5862],7.97 ± 0.65
9,GTAATTAAAATATATACACACAAAGGCTATTAAATA [CACACA_site1011],7.68 ± 0.52
10,TTTAATACGAATGAGGCACACACCTAGTATACATGC [CACACA_site621],7.96 ± 0.66
11,TTTAATTTTTTTAAAACACACAAATATATATATATA [CACACA_site3898],9.44 ± 0.39
12,CAAAATAATATATATACACACACACCGATATATATA [CACACA_site8082],8.06 ± 0.76
13,GTTAGCATATTAAGTTGTACACAATTATTCTTCAAT [XGTACX_site8324],8.08 ± 0.42
14,TGGTATTTTGATGATAAAAGGAAATTTTTTTTATAC [XGTACX_negctrl_site111],7.83 ± 0.28
15,AACAAAGAAAATACATGTACAAAAAATATTAACGAA [XGTACX_site287],8.21 ± 0.69
16,AATATAATATAATGCACACATAAACAAAAAAAAAAA [CACACA_site783],11.2 ± 1
17,ATTAATAATCGAAAGGTGCACTTTGATTTGATAACA,11.2 ± 0.3
18,TTATTATTTTATCGTAGTACACCTAAATTATAAAAC [XGTACX_site5251],8.425 ± 0.078
19,TAATTAAAATTATTTATAAATTAGTATATTTCTATA [CACACA_negctrl_site663],7.21 ± 0.37
